Experimental data: PubChem BioAssay AID1865 (National Center for Advancing Translational Sciences (NCATS), 2009)
The whole screen tested about 280,000 compounds, of which about 540 (0.19%) were called active. The shares of active, inactive and inconclusive entries below differ from those in the screen. The call rests on the fitted dose curve; in most records, active means well fitted activation curve with a large enough effect; inconclusive means small, poorly fitted or top-dose-only effect; inactive means flat fitted curve, though single readings scatter. Potencies of inconclusive entries are doubtful fits and often do not repeat.

Assay: Quantitative High-Throughput Screen for Regulators of Epigenetic Control; further: nearly all actives have a fitted effect of over 60% in size; on GFP activation: % of control where 0% means no effect
Details: murine LDR cells, GFP reporter derepression, 30 h; GFP activation: at 53.9 µM (top of the series)
Outline: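 Readout is the number of GFP-expressing murine LDR cells, counted by cytometry following washing. Cells were treated with compound for 30 h at 37 C; the stably integrated CMV-GFP locus is normally silent.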
Potency means the concentration at half of the fitted maximal effect; tags describe the fitted curve by direction and shape.

Compound	Potency	GFP activation
COc1ccc(-c2oc3ccc(C)cc3c(=O)c2O)cc1OC	inconclusive: 25.1 µM [activator, single point]	
CCOC(=O)c1cc2c(=O)n3ccccc3nc2n(CC2CCCO2)c1=NC(=O)c1cccc(C(F)(F)F)c1 (centres undefined)	inconclusive: 35.5 µM [activator, single point]	
CCOC(=O)N1CCc2c(sc3c2c(=O)n(-c2ccc(Cl)cc2)c(=O)n3CC(=O)c2ccc(F)cc2)C1	inconclusive: 35.5 µM [activator, single point]	
Cc1ccc(N2C(=O)c3cccc4c([N+](=O)[O-])ccc(c34)C2=O)c2cccnc12	inconclusive: 3.16 µM [activator, single point]	
C=CCNC(=O)C(C#N)c1nc2ccccc2nc1N1CCN(Cc2ccccc2)CC1 (centres undefined)	inconclusive: 31.6 µM [activator, single point]	
Cc1ccccc1C(=O)Nc1ccc(Br)cn1	inconclusive: 5.62 µM [activator, single point]	
Cc1[nH]nc(N=CC2=C(O)CC(c3ccco3)CC2=O)c1-c1ccccc1 (centres undefined)	inconclusive: 20 µM [activator, single point]	
CCN(c1cccc(C)c1)S(=O)(=O)c1nnc(NC(=O)c2cccs2)s1	inconclusive: 15.8 µM [activator, single point]	
C/C=C(\C)C(=O)Nc1cccc(C2=NOC3(C2)C[C@H](C(N)=O)N(C(=O)c2cc([N+](=O)[O-])cc([N+](=O)[O-])c2)C3)c1 (some centres undefined)	inconclusive: 11.2 µM [activator, single point]	
O=C(/C=C/c1ccc2c(c1)OCO2)Nc1nc2ccccc2s1	inconclusive: 25.1 µM [activator, single point]	
COCCNc1nc2c(c(=O)n(Cc3ccc(OC)cc3)c(=O)n2C)n1C		inactive: -1.01%
CS(=O)(=O)Nc1ccccc1C(=O)Nc1cc(Cl)cc(Cl)c1		inactive: 0.56%
CN(C)C(=O)c1ccc(NC(=O)Cn2nnnc2-c2ccccc2F)cc1	inconclusive: 7.08 µM [activator, single point]	
COC(=O)c1nn(-c2ccccc2)nc1-c1nn(-c2ccccc2)nc1C(=O)OC	inconclusive: 22.4 µM [activator, single point]	
CCOC(=O)c1ccc(NC(=O)Cn2nc(SC)c(S(=O)(=O)c3ccc(Cl)cc3)c2N)cc1		inactive: -1.77%
Cc1ccc(CCNC(=O)CCN2N=C(c3ccc(C)cc3)CCC2=O)cc1		inactive: -2.64%
Cc1cc(NCc2ccccn2)n2nc(C)c(-c3ccc(Cl)cc3)c2n1	inconclusive: 25.1 µM [activator, single point]	
CCC1CCCCN1CC(O)Cn1c2ccccc2n2c(=O)cc(C)c(C#N)c12 (centres undefined)		inactive: 2.63%
COc1ccc(-n2nc([N+](=O)[O-])c(=NCc3ccc4c(c3)OCO4)n2O)cc1	inconclusive: 35.5 µM [activator, single point]	
CNC(=S)N(Cc1ccco1)Cc1cc2cc(OC)ccc2[nH]c1=O		inactive: 0%
COc1ccc(CN2CC(C(=O)NCCC3=CCCCC3)CC2=O)cc1 (centres undefined)	inconclusive: 22.4 µM [activator, single point]	
Cn1c(N/N=C/c2cc3ccccc3nc2Cl)nc2ccccc21	inconclusive: 31.6 µM [activator, single point]	
O=[N+]([O-])c1c(NCCCO)cc(SCc2ccco2)c2nonc12	inconclusive: 25.1 µM [activator, single point]	

Compound	Potency	GFP activation
O=C(Nc1ccc2c(c1)CCCN2C(=O)c1cccs1)c1ccccc1	inconclusive: 7.94 µM [activator, partial curve]	
O=C(Cn1c(=O)n(Cc2ccccc2)c(=O)c2sc3ccccc3c21)Nc1ccccc1F	inconclusive: 35.5 µM [activator, single point]	
O=C1NN(c2ccc(F)cc2)C(=O)/C1=C\C=C\c1ccco1		inactive: -0.962%
CCCS(=O)(=O)c1nc(S(=O)(=O)c2ccc(C)cc2)c(NCc2ccccc2Cl)s1	inconclusive: 11.2 µM [activator, single point]	
Cc1cc(N/N=C/c2ccncc2)nc2ccccc12		inactive: 1.06%
CN(C)c1ccc(CNC(=O)c2ccc(Cn3c(=O)c4cccn4c4cccnc43)cc2)cc1	inconclusive: 25.1 µM [activator, single point]	
CCOCCCNC(=S)N1CCCN(c2nc3cc(C)c(C)cc3cc2C#N)CC1		inactive: 3.26%
FC(F)(F)c1cccc(Sc2nc(-c3ccccc3)nnc2C(F)(F)F)c1	inconclusive: 3.98 µM [activator, single point]	
COc1ccc(NCc2cc3cc4c(cc3n(CC(=O)Nc3cc(C)ccc3C)c2=O)OCCO4)cc1		inactive: 11.4%
Cc1ccc(-n2c(=O)c3ccc(C(=O)NCc4ccco4)cc3n(Cc3ccccc3C#N)c2=O)cc1	inconclusive: 35.5 µM [activator, single point]	
CC1=C(C)CS(=O)N(S(=O)(=O)c2ccccc2)C1 (centres undefined)	inconclusive: 35.5 µM [activator, single point]	
Cc1cccc(NC(=O)c2ccc(NCCO)c([N+](=O)[O-])c2)n1	inconclusive: 31.6 µM [activator, single point]	
Cc1nc2ccccc2c2oc(C(=O)NCCN3CCCCC3C)cc12 (centres undefined)		inactive: -0.98%
CCOC(=O)c1c(C)oc2c1c(C(c1cccnc1)N1CCOCC1)c(O)c1ccccc12 (centres undefined)	inconclusive: 20 µM [activator, single point]	
COC(=O)c1ccc(NC(=O)c2c(NCc3cccc(F)c3)sc3c2CCCC3)cc1		inactive: 1.06%
Cc1ccc(NC(=O)Cn2cc(S(=O)(=O)c3ccccc3)c(=O)c3cc(F)ccc32)cc1	inconclusive: 35.5 µM [activator, single point]	
CC(Sc1n[nH]c(=O)[nH]c1=O)C(=O)OCc1ccccc1 (centres undefined)		inactive: -0.0229%
Cc1cccn2c(=O)c(C(=O)N3CCN(c4ccccc4F)CC3)cnc12		inactive: 1.3%
Cc1cc(C)c(S(=O)(=O)NCc2ccc3c(c2)CCN3C(=O)c2ccccc2)c(C)c1	inconclusive: 0.141 µM [activator, full curve, poor fit]	
CCN(CC)c1ccc2cc(-c3nnc(Nc4ccc(C)cc4)s3)c(=O)oc2c1	active: 0.1 µM	
Cc1ccc(N2C(=O)CS/C2=C(\C(Cl)=C(Cl)Cl)[N+](=O)[O-])cc1	inconclusive: 31.6 µM [activator, single point]	
Cc1[nH]c2ccccc2c1/C=C/c1nc2ccccc2c(=O)[nH]1	inconclusive: 35.5 µM [activator, single point]	
COC(=O)NC(CCc1ccccc1)C(C(=O)OC)C(=O)OC (centres undefined)	inconclusive: 12.6 µM [activator, partial curve]	

Compound	Potency	GFP activation
COc1ccc2nc(Nc3nc(CSc4ccc(C)cc4)cc(=O)[nH]3)nc(C)c2c1	inconclusive: 3.98 µM [activator, single point]	
NC(=O)c1nc(Nc2ccccc2)sc1NC(=O)c1c(F)cccc1F	inconclusive: 3.16 µM [activator, partial curve]	
CC(C)Cn1nc(NC(=O)c2cccc(Cl)c2)c2cc3ccccc3nc21	inconclusive: 35.5 µM [activator, single point]	
COc1ccc(S(=O)(=O)CCc2nnc(NC(=O)c3cccs3)s2)cc1		inactive: -0.318%
Cc1ccc2cc3c(NC(=O)c4ccco4)nn(CC(C)C)c3nc2c1	inconclusive: 22.4 µM [activator, single point]	
CC1=NN(c2ccccc2)C(=O)/C1=C/c1cc(C)n(C2CC2)c1C	inconclusive: 25.1 µM [activator, single point]	
O=C(CSc1nc2ccccc2o1)Nc1ccc(N2CCOCC2)cc1		inactive: -2.03%
CC(O)CNCCNCc1c(OCc2ccccc2)ccc2ccccc12 (centres undefined)		inactive: 0%
N#Cc1cc2cc3ccccc3nc2n2c(=O)c3ccccc3nc12	inconclusive: 31.6 µM [activator, single point]	
CCOc1cc(C#N)c(NC(=O)Cn2nnc3ccccc32)cc1OCC	inconclusive: 31.6 µM [activator, single point]	
O=C(CN(Cc1ccc2c(c1)OCO2)C(=O)CSc1nc2ccccc2o1)NC1CCCCC1		inactive: -2.77%
CCOC(=O)c1c(OCC)[nH]c2c1cc(O)c1ccccc12		inactive: 1.22%
CCc1ccccc1OCc1nnc(N)s1	inconclusive: 0.355 µM [activator, full curve, poor fit]	
CCCNc1nc(NCC)nc(OC)n1		inactive: 1.89%
CCCCCCCCCCCCCCCCCC(=O)NCCc1ccc(O)c(O)c1	active: 11.2 µM	
Cc1ccc(S(=O)(=O)N2CCCC(C(=O)Nc3ccc(C(=O)O)cc3)C2)cc1Cl (centres undefined)		inactive: 0%
Cn1c(=O)c2c(nc(NNC(=O)C(F)(F)F)n2C)n(C)c1=O		inactive: -0.356%
COc1ccc(C(=O)/C=C/c2cn(CC(O)CN3CCN(C)CC3)c3ccccc23)cc1OC (centres undefined)	inconclusive: 28.2 µM [activator, single point]	
CCCc1cc(=O)[nH]c(Nc2cccc(Cl)c2Cl)n1	inconclusive: 35.5 µM [activator, single point]	
NC(=S)N/N=C1\CC(c2ccc3c(c2)OCCCO3)Oc2ccc(F)cc21 (centres undefined)	inconclusive: 35.5 µM [activator, single point]	
CN(C)c1ccc(CN(C(=O)/C=C/c2ccco2)C2CCS(=O)(=O)C2)cc1 (centres undefined)		inactive: 1.22%
Cc1nnc(N2CCOCC2)c2ccccc12	inconclusive: 3.55 µM [activator, single point]	
O=C(NCc1ccccc1)Nc1cccn(Cc2c(F)cccc2Cl)c1=O	inconclusive: 28.2 µM [activator, single point]	
